The record followed here is the supplement of paper PMC9446081.

Out of some 39,000 compounds screened, about 220 (0.56%) showed activity. The list shows a part of the results.
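Also: static incubation at 37 °C against the wild-type strain, values averaged over two biological replicates.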

The test system of this experiment is Escherichia coli K-12 BW25113. Put plainly: relative growth (OD600 normalised to plate interquartile mean) (fraction); higher = less growth inhibition, active = 0.2 or less. Conditions: 50 µM; LB; incubation time: overnight (16-24 h).
Take `CCCCOC(=O)c1ccc(O)cc1`: the relative growth was inactive: 1.05.

For the compound `C[C@@H]1CCCCO[C@@H](CN(C)C(=O)c2ccccc2)[C@@H](C)CN([C@@H](C)CO)C(=O)c2cc(NS(=O)(=O)c3cccs3)ccc2O1`, the relative growth is inactive: 1.01.

For `C[C@@H]1CCCCO[C@H](CN(C)C(=O)c2ccccc2)[C@@H](C)CN([C@@H](C)CO)C(=O)c2cc(NC(=O)Nc3ccc4c(c3)OCO4)ccc2O1`, the relative growth is inactive: 1.01.

Consider `C[C@@H]1CN([C@@H](C)CO)C(=O)c2c(c3ccccc3n2C)-c2ccccc2CO[C@H]1CN(C)Cc1ccc2c(c1)OCCN2C`, for which the relative growth is inactive: 0.998. As for `Cc1c2c(nn1C)CSCc1cc(n(C)n1)CSc1cc(c3ccccc3c1)OCCCc1c(C(=O)O)n(C)c3c-2c(Cl)ccc13`, the relative growth was inactive: 1.01.

`CC(=O)OCC[N+](C)(C)C.[Cl-]`: the relative growth was inactive: 1.18.

Consider `C[C@@H]1CN([C@H](C)CO)C(=O)c2cc(NC(=O)NC3CCCCC3)ccc2O[C@@H](C)CCCCO[C@H]1CN(C)C(=O)Nc1ccc(C(F)(F)F)cc1`, for which the relative growth is inactive: 1.02.

As for `C[C@H](CO)N1C[C@H](C)[C@H](CN(C)C(=O)Nc2ccc(C(F)(F)F)cc2)Oc2c(NC(=O)CCCCCC(=O)Nc3ccccc3N)cccc2C1=O`, the relative growth was inactive: 0.994. The same measure for `COC[C@@H]1CN(C(=O)c2cscn2)N1C`: inactive: 0.996. As for `C[C@H](CO)N1C[C@H](C)[C@@H](CN(C)C(=O)C2CC2)OCc2cn(nn2)CCCC1=O`, the figure is inactive: 1.03; as for `C[C@H]1CCc2cc(F)ccc2N1`, inactive: 0.985. As for `COc1ccc(CN2C[C@H](C)[C@@H](OC)CN(C)C(=O)c3ccc(NC(=O)c4nc5ccccc5s4)cc3OC[C@@H]2C)cc1`, the figure is inactive: 0.993; as for `CCS(=O)(=O)N[C@H]1C=C[C@@H](CC(=O)NCc2ccc(Cl)cc2)O[C@@H]1CO`, inactive: 1; as for `Cc1ccc(S(=O)(=O)Nc2ccc3c(c2)CC(=O)N([C@@H](C)CO)C[C@@H](C)[C@@H](CN(C)S(=O)(=O)c2ccc(F)cc2)O3)cc1`, inactive: 0.885.

Consider `COc1ccc2c3c([nH]c2c1)[C@@H](CO)N(Cc1nccs1)C[C@]13CCN(CC1)C(=O)C1CCOCC1`, for which the relative growth was inactive: 1.03. The same measure for `CC(C)NC(=O)Nc1ccc2c(c1)CC(=O)N([C@@H](C)CO)C[C@@H](C)[C@@H](CN(C)Cc1ccc(C(=O)O)cc1)O2`: inactive: 1.01; for `Cc1ncc(COP(=O)(O)O)c(C=O)c1O`: inactive: 1.03.

With `COc1ccc(S(=O)(=O)Nc2ccc3c(c2)[C@H]2C[C@H](CC(=O)NCC4CC4)O[C@@H](CO)[C@H]2O3)cc1`, the relative growth is inactive: 0.977. Regarding `CCCc1nc2c(C)cc(-c3nc4ccccc4n3C)cc2n1Cc1ccc(-c2ccccc2C(=O)O)cc1`, the relative growth was inactive: 0.907. As for `C[C@@H]1CCCCO[C@H](CN(C)Cc2ccncc2)[C@H](C)CN([C@@H](C)CO)C(=O)c2cc(NC(=O)Nc3ccc(F)cc3)ccc2O1`, the relative growth was inactive: 0.995. As for `C[C@@H]1CN([C@H](C)CO)C(=O)Cc2cc(NC(=O)CCN3CCOCC3)ccc2O[C@@H]1CN(C)CC1CCCCC1`, the relative growth was inactive: 1.01. As for `C[C@@H]1CN([C@H](C)CO)C(=O)Cc2cc(NC(=O)Cc3cn(C)c4ccccc34)ccc2O[C@H]1CN(C)Cc1ccc(Oc2ccccc2)cc1`, the figure is inactive: 1.01. As for `C[C@H]1CCCCO[C@@H](CN(C)C(=O)Nc2ccccc2)[C@@H](C)CN([C@@H](C)CO)C(=O)c2cc(NC(=O)Cc3ccccc3)ccc2O1`, the figure is inactive: 0.993; as for `Cc1noc(C)c1NC(=O)Nc1cccc2c1O[C@H](CN(C)C(=O)Nc1ccc(C(F)(F)F)cc1)[C@H](C)CN([C@@H](C)CO)C2=O`, inactive: 0.972. Turning to `C[C@H](CO)N1C[C@H](C)[C@H](CN(C)C(=O)NC2CCCCC2)Oc2ccc(NC(=O)Nc3ccc(C(F)(F)F)cc3)cc2C1=O`, the relative growth is inactive: 0.999. The same measure for `C[C@@H]1CN([C@@H](C)CO)C(=O)c2cc(NC(=O)Nc3cccc4ccccc34)ccc2O[C@H]1CN(C)Cc1ccc(Oc2ccccc2)cc1`: inactive: 1.04. As for `C[C@@H]1CN([C@H](C)CO)C(=O)Cc2cc(NC(=O)CCCCCC(=O)Nc3ccccc3N)ccc2O[C@@H]1CN(C)Cc1ccccc1`, the figure is inactive: 1. With `Cn1[nH]cc2c(=O)cccc1-2`, the relative growth is inactive: 0.866. In the case of `CC(C)NC(=O)Nc1cccc2c1O[C@H](CN(C)S(=O)(=O)c1ccc(F)cc1)[C@H](C)CN([C@H](C)CO)C2=O`, the relative growth was inactive: 1. For the compound `C[C@H]1CCCCO[C@@H](CN(C)CC2CCCCC2)[C@@H](C)CN([C@@H](C)CO)C(=O)c2cc(NC(=O)C3CCCCC3)ccc2O1`, the relative growth is inactive: 0.972. Regarding `C[C@@H]1CN([C@H](C)CO)C(=O)c2cccc(NC(=O)Nc3ccc(C(F)(F)F)cc3)c2O[C@H]1CN(C)Cc1ccncc1`, the relative growth was inactive: 0.992. The same measure for `C[C@@H]1CN([C@H](C)CO)C(=O)c2cccc(NS(=O)(=O)c3cccs3)c2O[C@H]1CN(C)Cc1ccc(Cl)c(Cl)c1`: inactive: 0.994; for `C[C@@H]1CN([C@H](C)CO)C(=O)Cc2cc(NC(=O)C3CC3)ccc2O[C@@H]1CN(C)Cc1ccc(Oc2ccccc2)cc1`: inactive: 0.984; for `CC(C)NC(=O)N(C)C[C@@H]1Oc2ccc(NC(=O)Cn3cnnn3)cc2C(=O)N([C@@H](C)CO)C[C@@H]1C`: inactive: 0.985.

For the compound `C[C@H](CO)N1C[C@H](C)[C@@H](CN(C)C(=O)Nc2cccc3ccccc23)Oc2ccc(NC(=O)Nc3cccc4ccccc34)cc2CC1=O`, the relative growth is inactive: 1.01. The same measure for `O=C(C[C@H]1CC[C@H]2[C@@H](COC[C@@H](O)CN2S(=O)(=O)c2ccccc2)O1)N[C@H]1CCN(Cc2ccccc2)C1`: inactive: 1; for `C[C@@H]1CN([C@@H](C)CO)C(=O)c2cc(NC(=O)Nc3ccc4c(c3)OCO4)ccc2O[C@@H](C)CCCCO[C@H]1CN(C)Cc1ccncc1`: inactive: 1. The same measure for `C[C@@H]1CCCCO[C@@H](CN(C)Cc2ccc(C(=O)O)cc2)[C@@H](C)CN([C@H](C)CO)C(=O)c2cc(NS(=O)(=O)c3cccs3)ccc2O1`: inactive: 0.925. Turning to `N=C(N)c1ccc2nc(-c3cc(CC(=O)N[C@@H](CC(=O)O)C(=O)O)cc(-c4cc(S(N)(=O)=O)ccc4O)c3O)[nH]c2c1`, the relative growth is inactive: 1. Turning to `C[C@@H]1CN([C@@H](C)CO)C(=O)Cc2cc(NS(=O)(=O)c3cccs3)ccc2O[C@@H]1CN(C)Cc1ccc(Cl)c(Cl)c1`, the relative growth was inactive: 1. As for `NC(C(=O)NC1C(=O)N2C(C(=O)O)=C(Cl)CSC12)c1ccccc1` (configuration not stated), the figure is active: 0.0491; as for `COc1ccc(CN(C)C[C@@H]2OCCCC[C@H](C)Oc3ccc(NC(=O)Cc4ccccc4)cc3C(=O)N([C@@H](C)CO)C[C@H]2C)cc1`, inactive: 1.02; as for `C[C@@H]1CN([C@H](C)CO)C(=O)c2cc(NC(=O)Cc3ccccc3)ccc2O[C@@H](C)CCCCO[C@H]1CN(C)C(=O)Nc1ccc(F)cc1`, inactive: 0.994.

In the case of `CO[C@@H]1CN(C)C(=O)c2cc(NC(=O)C3CC3)ccc2OC[C@H](C)N(C(=O)CN2CCOCC2)C[C@@H]1C`, the relative growth is inactive: 0.991. The same measure for `O=C(C[C@@H]1CC[C@@H]2[C@H](COC[C@H](O)CN2S(=O)(=O)c2ccccc2)O1)NCc1ccncn1`: inactive: 0.979; for `C[C@@H]1CN([C@@H](C)CO)S(=O)(=O)c2ccc(-c3ccc(C(=O)N(C)C)cc3)cc2O[C@H]1CN(C)C(=O)C1CCC1`: inactive: 0.999.

On to `CC(C)(CO)c1cc2cc(NC(=O)C3(c4ccc5c(c4)OC(F)(F)O5)CC3)c(F)cc2n1C[C@@H](O)CO`, for which the relative growth is inactive: 0.96. The same measure for `Cc1ccc(Cn2c3ccccc3c3ccccc32)cc1`: inactive: 1.02; for `COC(=O)C1C(O)CCC2CN3CCc4c([nH]c5ccccc45)C3CC21.Cl` (configuration not stated): inactive: 1.1.

As to `C[C@@H]1CN([C@@H](C)CO)S(=O)(=O)c2ccc(C#Cc3cccnc3)cc2O[C@@H]1CN(C)C(=O)Nc1ccc2c(c1)OCO2`, the relative growth is inactive: 0.95.

With `O=C(N[C@H](c1ccc(Cl)cc1)c1ccccn1)C1CCN(CCOc2ccc(Cl)cc2Cl)CC1`, the relative growth is inactive: 0.956. As for `CC1(C)S[C@H]2[C@@H](NC(=O)[C@@H](NC(=O)N3CCN(S(C)(=O)=O)C3=O)c3ccccc3)C(=O)N2[C@@H]1C(=O)O`, the figure is inactive: 0.237.

In the case of `C[C@H]1CN([C@@H](C)CO)C(=O)c2cc(NS(=O)(=O)c3cn(C)cn3)ccc2O[C@@H]1CN(C)Cc1ccc(C(=O)O)cc1`, the relative growth was inactive: 1.04.

Consider `Cc1ccc(S[C@]2(C(=O)NCCN3CCOCC3)CC(=O)N(Cc3cc(C(F)(F)F)cc(C(F)(F)F)c3)[C@@H]2c2ccc(CO)cc2I)cc1`, for which the relative growth was inactive: 0.97. The same measure for `C[C@H](CO)N1C[C@H](C)[C@@H](CN(C)Cc2ccc(F)cc2)Oc2cc(C#CCN(C)C)ccc2S1(=O)=O`: inactive: 1.01; for `C[C@H](CO)N1C[C@H](C)[C@H](CN(C)S(=O)(=O)c2cccc(F)c2)Oc2ncc(C#CCN(C)C)cc2C1=O`: inactive: 0.971; for `CC(C)[C@H]1CC[C@@H](C)C[C@@H]1NC(=O)c1cccc2ccccc12`: inactive: 1.03. As for `Cc1ccc(C(N)=O)cc1N(C)S(C)(=O)=O`, the figure is inactive: 1.02; as for `C[C@H](CO)N1C[C@H](C)[C@@H](CN(C)Cc2ccc(-c3ccccc3)cc2)Oc2ccc(NC(=O)C3CCCCC3)cc2CC1=O`, inactive: 0.984.

In the case of `C[C@@H]1CCCCO[C@@H](CN(C)CC2CCCCC2)[C@@H](C)CN([C@@H](C)CO)C(=O)c2cc(NC(=O)CCC(F)(F)F)ccc2O1`, the relative growth was inactive: 0.982. Take `CCCCC1C(=O)N(c2ccccc2)N(c2ccccc2)C1=O`: the relative growth is inactive: 1.05.

For `C[C@H](CO)N1C[C@H](C)[C@@H](CN(C)C(=O)Nc2ccc(F)cc2)Oc2c(NC(=O)c3cnccn3)cccc2C1=O`, the relative growth was inactive: 1.01.
